For twelve molecules, binding results are on record in publication PMC9741505.

Sequences of proteins named here, by UniProt entry; tags and fusion partners are left off. Residues count along the entry.
UniProt Q9BXM7, residues 78-581: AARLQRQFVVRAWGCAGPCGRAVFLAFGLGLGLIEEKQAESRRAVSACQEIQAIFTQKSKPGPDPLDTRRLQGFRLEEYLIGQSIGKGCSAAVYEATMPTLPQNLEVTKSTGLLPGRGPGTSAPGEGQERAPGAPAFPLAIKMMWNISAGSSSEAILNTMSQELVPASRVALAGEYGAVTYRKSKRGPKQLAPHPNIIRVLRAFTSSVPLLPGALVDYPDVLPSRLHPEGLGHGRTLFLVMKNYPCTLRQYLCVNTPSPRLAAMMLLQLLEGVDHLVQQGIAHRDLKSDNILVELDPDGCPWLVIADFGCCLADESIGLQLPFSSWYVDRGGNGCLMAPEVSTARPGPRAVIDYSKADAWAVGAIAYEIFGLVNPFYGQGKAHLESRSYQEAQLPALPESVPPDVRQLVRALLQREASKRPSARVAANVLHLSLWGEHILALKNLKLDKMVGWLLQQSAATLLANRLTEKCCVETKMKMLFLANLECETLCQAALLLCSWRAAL
UniProt P00722: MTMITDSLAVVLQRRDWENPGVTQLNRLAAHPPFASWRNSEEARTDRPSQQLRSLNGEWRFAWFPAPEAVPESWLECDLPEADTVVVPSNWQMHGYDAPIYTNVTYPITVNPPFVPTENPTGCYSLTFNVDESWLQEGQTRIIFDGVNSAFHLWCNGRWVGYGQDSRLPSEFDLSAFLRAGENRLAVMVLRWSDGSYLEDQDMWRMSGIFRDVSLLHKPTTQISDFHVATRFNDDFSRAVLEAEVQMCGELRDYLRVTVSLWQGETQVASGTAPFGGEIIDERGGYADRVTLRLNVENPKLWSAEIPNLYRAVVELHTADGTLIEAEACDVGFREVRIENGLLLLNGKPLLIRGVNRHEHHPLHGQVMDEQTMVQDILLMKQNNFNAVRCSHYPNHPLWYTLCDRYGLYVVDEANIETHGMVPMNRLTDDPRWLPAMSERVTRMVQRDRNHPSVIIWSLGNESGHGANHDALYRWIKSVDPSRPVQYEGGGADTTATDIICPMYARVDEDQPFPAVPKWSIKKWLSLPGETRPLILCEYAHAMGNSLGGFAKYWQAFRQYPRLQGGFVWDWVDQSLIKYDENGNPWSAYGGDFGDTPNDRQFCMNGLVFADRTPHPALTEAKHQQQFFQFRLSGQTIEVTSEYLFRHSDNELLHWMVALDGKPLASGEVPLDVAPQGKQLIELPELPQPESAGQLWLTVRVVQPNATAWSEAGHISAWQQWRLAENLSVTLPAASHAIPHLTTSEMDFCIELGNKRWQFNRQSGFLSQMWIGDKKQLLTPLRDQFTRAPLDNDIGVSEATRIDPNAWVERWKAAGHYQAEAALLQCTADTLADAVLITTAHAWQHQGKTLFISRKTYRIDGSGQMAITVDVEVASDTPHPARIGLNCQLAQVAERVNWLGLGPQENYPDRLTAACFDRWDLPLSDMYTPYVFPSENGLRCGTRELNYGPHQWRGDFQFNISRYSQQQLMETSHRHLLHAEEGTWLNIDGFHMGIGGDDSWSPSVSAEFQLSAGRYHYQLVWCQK
UniProt B5DFG1, residues 78-580: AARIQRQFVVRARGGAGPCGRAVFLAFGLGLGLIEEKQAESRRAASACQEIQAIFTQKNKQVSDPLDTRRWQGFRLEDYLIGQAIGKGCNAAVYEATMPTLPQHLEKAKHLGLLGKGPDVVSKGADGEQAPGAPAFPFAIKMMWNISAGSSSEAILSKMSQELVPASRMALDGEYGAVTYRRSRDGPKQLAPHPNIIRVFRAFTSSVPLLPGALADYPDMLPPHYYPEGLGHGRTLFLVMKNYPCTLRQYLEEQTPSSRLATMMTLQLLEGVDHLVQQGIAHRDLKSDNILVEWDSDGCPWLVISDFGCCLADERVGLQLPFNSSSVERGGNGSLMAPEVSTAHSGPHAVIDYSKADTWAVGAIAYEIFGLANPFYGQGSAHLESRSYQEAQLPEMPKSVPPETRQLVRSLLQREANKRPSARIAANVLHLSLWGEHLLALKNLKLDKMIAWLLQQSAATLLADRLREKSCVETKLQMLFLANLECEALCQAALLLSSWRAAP

Assay [1] addresses T1, SIAH3, myc-tagged, expressed in HEK293 cells (UniProt Q8IW03).
T1 sequence: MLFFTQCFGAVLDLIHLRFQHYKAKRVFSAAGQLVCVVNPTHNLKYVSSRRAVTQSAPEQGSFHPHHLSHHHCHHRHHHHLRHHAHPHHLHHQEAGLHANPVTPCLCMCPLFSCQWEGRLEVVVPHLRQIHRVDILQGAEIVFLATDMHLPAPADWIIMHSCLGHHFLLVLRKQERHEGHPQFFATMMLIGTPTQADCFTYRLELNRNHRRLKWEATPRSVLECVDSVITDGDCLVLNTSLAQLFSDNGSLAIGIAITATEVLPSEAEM
Put plainly: co-IP; transfected HEK293 cell lysates; immunoprecipitation with anti-myc (SIAH3), PINK1 detected with anti-Flag.

In assay [2] the target is PINK1, HA-tagged, expressed in HEK293 cells (UniProt Q9BXM7). Put plainly: co-IP; transfected HEK293 cell lysates; immunoprecipitation with anti-HA (PINK1), partner detected with anti-myc.
The target in assay [3] is LacZ, myc-tagged (control) [β-galactosidase: P00722]. Put plainly: co-IP; reverse assay; immunoprecipitation with anti-myc (SIAH1 or LacZ), PINK1 detected with anti-PINK1.
Assay [4] concerns the target T2, SIAH1, myc-tagged, expressed in HEK293 cells (UniProt Q8IUQ4).
T2 sequence: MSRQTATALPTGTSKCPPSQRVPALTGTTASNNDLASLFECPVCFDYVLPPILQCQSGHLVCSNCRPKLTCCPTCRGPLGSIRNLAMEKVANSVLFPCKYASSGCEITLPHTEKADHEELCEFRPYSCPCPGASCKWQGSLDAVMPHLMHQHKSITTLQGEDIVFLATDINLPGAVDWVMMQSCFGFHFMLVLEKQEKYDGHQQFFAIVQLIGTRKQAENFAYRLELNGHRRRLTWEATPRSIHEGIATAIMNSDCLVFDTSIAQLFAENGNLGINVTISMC
The assay is described as above.

Assay [5] has as its target PINK1, HA-tagged, expressed in N2a cells (UniProt Q9BXM7). Put plainly: co-IP; transfected N2a cell lysates; immunoprecipitation with anti-HA (PINK1), partner detected with anti-myc.
Assay [6] concerns the target T3, SIAH3 as used in Figure S4a (UniProt Q8IW03).
T3 sequence: T1 sequence
Briefly: co-IP; Figure S4a; legend and methods not shown.

Assay [7] addresses PINK1, HA-tagged, expressed in HEK293 cells (UniProt Q9BXM7). Briefly: co-IP; transfected HEK293 cell lysates; immunoprecipitation with anti-HA (PINK1), partner detected with anti-myc. The source holds these as a separate data set.
For assay [8], the target named is His-PINK1, recombinant purified (UniProt Q9BXM7). Put plainly: pull-down; in vitro binding with purified proteins only; purified GST-proteins incubated with His-PINK1 or His alone, binding detected with anti-GST; both purified.
Assay [9] has as its target PINK1, HA-tagged, expressed in N2a cells (UniProt Q9BXM7). Put plainly: co-IP; transfected N2a cell lysates; immunoprecipitation with anti-HA (PINK1), partner detected with anti-myc. The source holds these as a separate data set.
Assay [10] addresses Endogenous PINK1 of rat brain (rat (endogenous in brain)) (UniProt B5DFG1). Put plainly: co-IP; endogenous proteins, rat brains; immunoprecipitation with anti-PINK1, SIAH1 detected with anti-SIAH1; IgG as control.

Residue numbers refer to the chain shown, from its start. Like-named read-outs stand apart in the source and are kept apart here. These are yes or no findings as the source states them, for the method shown. For some of these results: Binding seen in cells or lysates may run through a third protein. Some results given as binding are weak or reduced against the parent protein; the word gives no strength. For some of these results: Tags and fused reporters may be left off the sequences shown.

On to “PINK1 wild-type, Flag-tagged, expressed in HEK293 cells (from UniProt Q9BXM7 78-581)”, for which, in [1], the binding result is given as “binds”.

Turning to “LacZ, myc-tagged (control) (from UniProt P00722 1-1024)”, the binding entry in assay [2] was “no binding”.

Consider “PINK1, HA-tagged, expressed in HEK293 cells (from UniProt Q9BXM7 78-581)”, for which the binding entry is listed as “no binding” in assay [3] and “binds” in assay [4].

Turning to “FKBP12, myc-tagged (control), expressed in N2a cells (from UniProt P62942 1-108)”, in assay [5], the binding entry is on record as “no binding”.

B1: SIAH2 (enzyme, UniProt O43255 1-324)
chain: MSRPSSTGPSANKPCSKQPPPQPQHTPSPAAPPAAATISAAGPGSSAVPAAAAVISGPGGGGGAGPVSPQHHELTSLFECPVCFDYVLPPILQCQAGHLVCNQCRQKLSCCPTCRGALTPSIRNLAMEKVASAVLFPCKYATTGCSLTLHHTEKPEHEDICEYRPYSCPCPGASCKWQGSLEAVMSHLMHAHKSITTLQGEDIVFLATDINLPGAVDWVMMQSCFGHHFMLVLEKQEKYEGHQQFFAIVLLIGTRKQAENFAYRLELNGNRRRLTWEATPRSIHDGVAAAIMNSDCLVFDTAIAHLFADNGNLGINVTISTCCP
Turning to B1, the binding result in [6] is given as “binds”.

B2: SIAH3, myc-tagged, expressed in HEK293 cells (protein, UniProt Q8IW03 1-269)
chain: T1 sequence
On to B2, for which, in [7], the binding result is given as “binds”.

B3: GST-SIAH3, recombinant purified (protein, UniProt Q8IW03 1-269)
chain: T1 sequence
For B3, the binding result in assay [8] is reported as “binds”.

B4: SIAH3, myc-tagged, expressed in N2a cells (protein, UniProt Q8IW03 1-269)
chain: T1 sequence
For the molecule B4, the binding entry in [9] was “binds”.

B5: GST-SIAH1, recombinant purified (enzyme, UniProt Q8IUQ4 1-282)
chain: T2 sequence
As for B5, in assay [8], the binding entry is listed as “binds”.

B6: SIAH1, myc-tagged, expressed in HEK293 cells (enzyme, UniProt Q8IUQ4 1-282)
chain: T2 sequence
As for B6, the binding result in assay [7] is listed as “binds”.

B7: Endogenous SIAH1 of rat brain (enzyme, UniProt Q920M9 1-282)
chain: T2 sequence with D116E
Take B7: the binding result in assay [10] is listed as “binds”.

B8: SIAH1 as used in Figures S3f and S4a (enzyme, UniProt Q8IUQ4 1-282)
chain: T2 sequence
With B8, the binding entry in [6] is recorded as “binds”.
